Molecular target: T1, Human GREM1 (Homo sapiens, UniProt O60565)
T1 construct: His; purchased ACRO
T1 sequence (O60565 25-184): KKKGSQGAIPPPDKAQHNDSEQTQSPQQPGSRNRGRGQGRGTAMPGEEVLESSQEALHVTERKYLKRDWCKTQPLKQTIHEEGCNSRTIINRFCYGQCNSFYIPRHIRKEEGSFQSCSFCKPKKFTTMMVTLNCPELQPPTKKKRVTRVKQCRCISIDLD
Assay: Binding affinity to human GREM1 through ELISA
Settings: Table 17
Description: A transparent polystyrene culture plate (BEAVER) was coated with a high pH coating buffer containing 0.5 μg/ml hGREM1 (ACRO) and mouse gremlin (R&D) at 100 μl/well at 4° C. overnight. Then, the culture plate was washed once with PBS and 0.1% of Tween 20 (Sigma) on an automatic culture plate washer. 100 μl of a blocking solution consisting of PBS, 1% of BSA, 1% of standard goat serum and 0.50% of Tween 20 (Sigma) was added into each well for incubation at room temperature for 2 hours. Then, 100 μl of an antibody (started with 2 μg/ml and continuously diluted) in an antibody dilution buffer containing PBS, 1% of BSA, 1% of standard goat serum and 0.01% of Tween 20 was added into each well of the culture plate for incubation at room temperature for 1 hour. Then, the culture plate was washed with 200 μl of a solution containing PBS and 0.1% of Tween 20 for three times, and goat anti-mouse IgG-HRP (Abcam) at a ratio of 1:10000 was added at 100 μl/well for incubation at room temperature for 1 hour. Then, the culture plate was washed with a solution containing PBS and 0.1% of Tween 20 for 3 times. Finally, TMB (Pierce) was added into each well at 100 μl/well, and several minutes later, 50 μl of a termination solution was added into each well. The culture plate was read on a Multiscan FC microplate reader (Thermo Scientific) at 450 nM. […]

B1: Chimeric 14E3: Chimeric 14E3 (hIgG1) anti-GREM1 antibody (antibody, V domains shown)
VH: QIQLVQSGPELKKPGETVKISCKTSGSTFTTYGMAWMKQAPGKGLTWMGWINTLSGEPTYADDFKGRFAFSLKTSANTAYLQINNLKNEDAATYFCAREPMDYWGQGTSVIVSS
VL: DVVMTQTPLTLSITIGQPASISCKSSQSLLDSDGKTYLSWLLQRPDQSPKRLISLVSKLDSGVPDRITGSGSGTDFTLKISRVEAEDLGIYYCWQGAHFPLTFGAGTKLELK
EC50 of binding to hGremlin-his: 6.8 ng/mL
